The other results are listed elsewhere or left out. The list includes weakly bound sequences.

The target of this assay is T1, MBP-FoxP3dN (UniProt Q99JB6).
T1 sequence: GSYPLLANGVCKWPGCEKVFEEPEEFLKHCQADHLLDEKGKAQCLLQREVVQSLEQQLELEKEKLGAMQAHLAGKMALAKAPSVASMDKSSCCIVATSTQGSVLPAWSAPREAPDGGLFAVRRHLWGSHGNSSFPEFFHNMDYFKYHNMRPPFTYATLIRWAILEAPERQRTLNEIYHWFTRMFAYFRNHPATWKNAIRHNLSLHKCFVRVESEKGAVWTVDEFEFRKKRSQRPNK
Nature of the assay: PD-seq (MBP pull-down with sequencing). Particulars: 20 mM Tris-HCl pH 7.5, 100 mM NaCl, 1.5 mM MgCl2, 0.4 uM protein, 0.1 uM dsDNA library, 30 min, room temperature, amylose pull-down; high values mean tight binding; double strand, one strand shown.
Turning to “GATGATTGTTCTCCCAGCTGATGAATTAGCTTTCTCGAGTAAACAAATTTTCCTAATCTTTCTGTTCAAGCGCCATCTAC”, the binding signal (RPM ratio (pull-down/input)) was found to be 2.83. Turning to “GATGATTGTTCTCCCAGCTGATGAATTGGAAGGTTCGAGTAAACAAATTTTCCTAATCTTTCTGTTCAAGCGCCATCTAC”, the binding signal (RPM ratio (pull-down/input)) was 0.253.

For “GATGATTGTTCTCCCAGCTGATGAATTGCAAGATTCGAGTAAACAAATTTTCCTAATCTTTCTGTTCAAGCGCCATCTAC”, the binding signal (RPM ratio (pull-down/input)) worked out at 0.566.

As for “GATGATTGTTCTCCCAGCTGATGAATTGCCCTGTTCGAGTAAACAAATTTTCCTAATCTTTCTGTTCAAGCGCCATCTAC”, the binding signal (RPM ratio (pull-down/input)) was 0.494. “GATGATTGTTCTCCCAGCTGATGAATTGCGGGCCTCGAGTAAACAAATTTTCCTAATCTTTCTGTTCAAGCGCCATCTAC”: the binding signal (RPM ratio (pull-down/input)) was 0.785. With “GATGATTGTTCTCCCAGCTGATGAATTATGTAGCTCGAGTAAACAAATTTTCCTAATCTTTCTGTTCAAGCGCCATCTAC” the figure was 2.18. As for “GATGATTGTTCTCCCAGCTGATGAATTAAATACGTCGAGTAAACAAATTTTCCTAATCTTTCTGTTCAAGCGCCATCTAC”, the binding signal (RPM ratio (pull-down/input)) turned out to be 0.388.

For “GATGATTGTTCTCCCAGCTGATGAATTGTCCTCTTCGAGTAAACAAATTTTCCTAATCTTTCTGTTCAAGCGCCATCTAC”, the binding signal (RPM ratio (pull-down/input)) amounted to 0.405. With “GATGATTGTTCTCCCAGCTGATGAATTTTGGACATCGAGTAAACAAATTTTCCTAATCTTTCTGTTCAAGCGCCATCTAC” the figure was 0.502; with “GATGATTGTTCTCCCAGCTGATGAATTACGGGGCTCGAGTAAACAAATTTTCCTAATCTTTCTGTTCAAGCGCCATCTAC”, 0.363. On to “GATGATTGTTCTCCCAGCTGATGAATTACTCACTTCGAGTAAACAAATTTTCCTAATCTTTCTGTTCAAGCGCCATCTAC”, for which the binding signal (RPM ratio (pull-down/input)) came to 0.403.

Take “GATGATTGTTCTCCCAGCTGATGAATTCCGCGCTTCGAGTAAACAAATTTTCCTAATCTTTCTGTTCAAGCGCCATCTAC”: the binding signal (RPM ratio (pull-down/input)) was 1.07. As for “GATGATTGTTCTCCCAGCTGATGAATTGTTAAAATCGAGTAAACAAATTTTCCTAATCTTTCTGTTCAAGCGCCATCTAC”, the figure is 0.291; as for “GATGATTGTTCTCCCAGCTGATGAATTGGCATCATCGAGTAAACAAATTTTCCTAATCTTTCTGTTCAAGCGCCATCTAC”, 3.24. “GATGATTGTTCTCCCAGCTGATGAATTTCTGCCGTCGAGTAAACAAATTTTCCTAATCTTTCTGTTCAAGCGCCATCTAC”: the binding signal (RPM ratio (pull-down/input)) was found to be 0.478. Regarding “GATGATTGTTCTCCCAGCTGATGAATTAGACATCTCGAGTAAACAAATTTTCCTAATCTTTCTGTTCAAGCGCCATCTAC”, the binding signal (RPM ratio (pull-down/input)) was found to be 0.795. With “GATGATTGTTCTCCCAGCTGATGAATTTCTTGGTTCGAGTAAACAAATTTTCCTAATCTTTCTGTTCAAGCGCCATCTAC” the figure was 0.692; with “GATGATTGTTCTCCCAGCTGATGAATTTCTAATGTCGAGTAAACAAATTTTCCTAATCTTTCTGTTCAAGCGCCATCTAC”, 0.33. Regarding “GATGATTGTTCTCCCAGCTGATGAATTCGTGACATCGAGTAAACAAATTTTCCTAATCTTTCTGTTCAAGCGCCATCTAC”, the binding signal (RPM ratio (pull-down/input)) was found to be 0.658.

For the sequence “GATGATTGTTCTCCCAGCTGATGAATTCCATGTATCGAGTAAACAAATTTTCCTAATCTTTCTGTTCAAGCGCCATCTAC”, the binding signal (RPM ratio (pull-down/input)) was 0.914. On to “GATGATTGTTCTCCCAGCTGATGAATTTCATAACTCGAGTAAACAAATTTTCCTAATCTTTCTGTTCAAGCGCCATCTAC”, for which the binding signal (RPM ratio (pull-down/input)) turned out to be 0.332.

For “GATGATTGTTCTCCCAGCTGATGAATTCGGGCCGTCGAGTAAACAAATTTTCCTAATCTTTCTGTTCAAGCGCCATCTAC”, the binding signal (RPM ratio (pull-down/input)) amounted to 0.35. In the case of “GATGATTGTTCTCCCAGCTGATGAATTGTGGAAATCGAGTAAACAAATTTTCCTAATCTTTCTGTTCAAGCGCCATCTAC”, the binding signal (RPM ratio (pull-down/input)) came to 0.46. With “GATGATTGTTCTCCCAGCTGATGAATTTCTGGACTCGAGTAAACAAATTTTCCTAATCTTTCTGTTCAAGCGCCATCTAC” the figure was 0.192; with “GATGATTGTTCTCCCAGCTGATGAATTGGCGGGCTCGAGTAAACAAATTTTCCTAATCTTTCTGTTCAAGCGCCATCTAC”, 0.287; with “GATGATTGTTCTCCCAGCTGATGAATTTCTGCTTTCGAGTAAACAAATTTTCCTAATCTTTCTGTTCAAGCGCCATCTAC”, 0.795. Consider “GATGATTGTTCTCCCAGCTGATGAATTCGTTTAATCGAGTAAACAAATTTTCCTAATCTTTCTGTTCAAGCGCCATCTAC”, for which the binding signal (RPM ratio (pull-down/input)) was determined as 0.803. With “GATGATTGTTCTCCCAGCTGATGAATTACAACGTTCGAGTAAACAAATTTTCCTAATCTTTCTGTTCAAGCGCCATCTAC” the figure was 0.659; with “GATGATTGTTCTCCCAGCTGATGAATTGAGCCGTTCGAGTAAACAAATTTTCCTAATCTTTCTGTTCAAGCGCCATCTAC”, 0.704; with “GATGATTGTTCTCCCAGCTGATGAATTCCTATGGTCGAGTAAACAAATTTTCCTAATCTTTCTGTTCAAGCGCCATCTAC”, 0.291. As for “GATGATTGTTCTCCCAGCTGATGAATTCAAAAGATCGAGTAAACAAATTTTCCTAATCTTTCTGTTCAAGCGCCATCTAC”, the binding signal (RPM ratio (pull-down/input)) was 0.175. Regarding “GATGATTGTTCTCCCAGCTGATGAATTTTCTCTGTCGAGTAAACAAATTTTCCTAATCTTTCTGTTCAAGCGCCATCTAC”, the binding signal (RPM ratio (pull-down/input)) is 0.238. With “GATGATTGTTCTCCCAGCTGATGAATTGCACGTGTCGAGTAAACAAATTTTCCTAATCTTTCTGTTCAAGCGCCATCTAC” the figure was 1.17; with “GATGATTGTTCTCCCAGCTGATGAATTCTGGTTATCGAGTAAACAAATTTTCCTAATCTTTCTGTTCAAGCGCCATCTAC”, 0.943. Consider “GATGATTGTTCTCCCAGCTGATGAATTACGTAAATCGAGTAAACAAATTTTCCTAATCTTTCTGTTCAAGCGCCATCTAC”, for which the binding signal (RPM ratio (pull-down/input)) turned out to be 0.468. “GATGATTGTTCTCCCAGCTGATGAATTGTCGCCGTCGAGTAAACAAATTTTCCTAATCTTTCTGTTCAAGCGCCATCTAC”: the binding signal (RPM ratio (pull-down/input)) worked out at 0.69. As for “GATGATTGTTCTCCCAGCTGATGAATTCCGCGCGTCGAGTAAACAAATTTTCCTAATCTTTCTGTTCAAGCGCCATCTAC”, the figure is 1.94; as for “GATGATTGTTCTCCCAGCTGATGAATTTCAGGATTCGAGTAAACAAATTTTCCTAATCTTTCTGTTCAAGCGCCATCTAC”, 0.242. As for “GATGATTGTTCTCCCAGCTGATGAATTCCTTGTCTCGAGTAAACAAATTTTCCTAATCTTTCTGTTCAAGCGCCATCTAC”, the figure is 0.395; as for “GATGATTGTTCTCCCAGCTGATGAATTTTTCCCTTCGAGTAAACAAATTTTCCTAATCTTTCTGTTCAAGCGCCATCTAC”, 0.197.

Source of the values: PMC12820563.
